{"source": "PubChem BioAssay AID463173", "about": "(ICCB-Longwood Screening Facility, Harvard Medical School, 2010)", "note": "About 1,700 (3.3%) of roughly 52,000 compounds were called active. No stated cut-off is given here; in the data, active means survival mostly below about 52% (no sharp cut-off); inactive means mostly above about 56%. Some of the results follow."}
{"test_system": "Wild type", "assay": "S. aureus survival, RN4220 and DeltatarO strains – OD600, teichoic acid synthesis inhibitors, primary screen (AID 463173)", "conditions": "S. aureus RN4220 wild type/DeltatarO growth, OD600, 18 h, active compounds read low, screened at 18.75 µg/mL (by protocol)"}
{"smiles": "COc1ccc(NC(=O)Nc2nnc(N3CCCCCC3)s2)c(OC)c1", "survival": "inactive: 78%"}
{"smiles": "COc1ccc(C(=O)N2CCN(c3nc4c(C)c(Cl)ccc4s3)CC2)c(OC)c1", "survival": "inactive: 88%"}
{"smiles": "CCOc1ccc(NC(=O)CN(C)S(=O)(=O)c2ccc3[nH]c4c(c3c2)CCCC4)cc1", "survival": "inactive: 65%"}
{"smiles": "Cc1cc(-c2ccc(S(=O)(=O)Nc3cccc(Cl)c3C)cc2)on1", "survival": "inactive: 75%"}
{"smiles": "Cc1ccc(NC(=O)Cn2c(=O)ccc3cc(S(=O)(=O)N4CCCC4)ccc32)cc1N(C)C", "survival": "active: 0%"}
{"smiles": "O=C(c1ccc(Cl)cc1)c1cn(Cc2ccccc2)c2cc3c(cc2c1=O)OCCO3", "survival": "inactive: 107%"}
{"smiles": "Cc1cc(C(=O)Nc2cccc(C)c2C)c2c(C)nn(-c3cccc(F)c3)c2n1", "survival": "inactive: 73%"}
{"smiles": "COc1cc(OC)c(OC)cc1/C=C/c1nc2ccccc2c(=O)n1-c1ccc(Br)c(C)c1", "survival": "inactive: 85%"}
{"smiles": "Cc1ccc(Cl)cc1N1CCN(C(=O)C2CCCN(Cc3nc(-c4cccc(Cl)c4)oc3C)C2)CC1", "note": "(stereo unspecified)", "survival": "inactive: 84%"}
{"smiles": "CCCCNc1nc2c(c(=O)n(Cc3ccccc3)c(=O)n2C)n1C", "survival": "inactive: 67%"}
{"smiles": "COc1ccc(N(C)C(=O)c2cc3c(s2)-c2ccccc2OC3)cc1", "survival": "active: 13%"}
{"smiles": "Cc1ccc(NC(=O)C2CCCN(S(=O)(=O)c3ccc4c(c3)CCCC(=O)N4)C2)cc1Cl", "note": "(stereo unspecified)", "survival": "inactive: 92%"}
{"smiles": "COc1ccc(CCNC(=O)C(=O)NCC(c2cccnc2)N2CCN(c3ccccc3)CC2)cc1", "note": "(stereo unspecified)", "survival": "inactive: 105%"}
{"smiles": "CCC(C(=O)NCCc1ccc(Cl)cc1)n1ccc2cc(S(=O)(=O)N3CCCCC3)ccc21", "note": "(stereo unspecified)", "survival": "inactive: 101%"}
{"smiles": "O=C(NCc1ccc(Cl)cc1)c1ccc2c(c1)N(Cc1ccccc1F)C(=O)c1ccccc1S2=O", "note": "(stereo unspecified)", "survival": "inactive: 148%"}
{"smiles": "CCc1ccc(CNC(=O)c2ccc(CS(=O)(=O)Cc3cccc(C)c3)o2)cc1", "survival": "inactive: 73%"}
{"smiles": "CCn1c(=O)cc(SCC(=O)NCc2ccc(C)cc2)c2ccccc21", "survival": "inactive: 80%"}
{"smiles": "C=Cc1ccc(Cn2c(=O)n(CC3CCC(C(=O)NC(C)C)CC3)c(=O)c3sccc32)cc1", "note": "(stereo unspecified)", "survival": "inactive: 81%"}
{"smiles": "O=C(NCc1ccco1)c1ccc2c(c1)N(Cc1ccccc1F)C(=O)c1ccccc1S2(=O)=O", "survival": "inactive: 96%"}
{"smiles": "CC(=O)Nc1ccc(S(=O)(=O)N(Cc2ccccc2)Cc2ccccc2)cc1", "survival": "inactive: 55%"}
{"smiles": "CCOc1ccccc1-c1nc(C(N)=O)c2c(n1)n(-c1ccc3c(c1)OCO3)c(=O)n2C", "survival": "inactive: 71%"}
{"smiles": "COc1cccc(NC(=O)CCN2CCN(CCO)CC2)c1", "survival": "inactive: 138%"}
{"smiles": "CCCCNC(=O)c1ccc2c(c1)NC(=O)C(CS(=O)(=O)Cc1ccc(F)cc1Cl)N2", "note": "(stereo unspecified)", "survival": "inactive: 91%"}
{"smiles": "CCCC(=O)Nc1ccc2nc(SCc3ccc(C)cc3)sc2c1", "survival": "inactive: 113%"}
{"smiles": "CC(C)CCNC(=O)c1ccc2c(c1)nc1n2CCCCC1", "survival": "inactive: 93%"}
{"smiles": "Nc1ccc2oc(Cc3ccc(Cl)cc3)nc2c1", "survival": "inactive: 75%"}
{"smiles": "COc1ccc(C)cc1NC(=O)Cc1c(C(=O)O)c(C)cn1C", "survival": "inactive: 74%"}
{"smiles": "COCCNc1ccc(-c2nc(-c3ccccn3)no2)cc1[N+](=O)[O-]", "survival": "inactive: 82%"}
{"smiles": "Cc1cccc(OCC(=O)Nc2ccccc2C(=O)OCc2cc(=O)n3nc(C4CC4)sc3n2)c1", "survival": "inactive: 68%"}
{"smiles": "CC(C)CCn1c(=O)c2sccc2n2c(CCCC(=O)NC(C)c3ccccc3)nnc12", "note": "(stereo unspecified)", "survival": "inactive: 101%"}
{"smiles": "Cc1cccc(-n2cnc3cc(C(=O)NC4CCCCCC4)ccc32)c1", "survival": "inactive: 124%"}
{"smiles": "CC(=O)c1cccc(NC(=O)CSc2nc3c(=O)n(C)c(=O)n(C)c3n2C)c1", "survival": "inactive: 55%"}
{"smiles": "Cc1ccc(CCNC(=O)c2cc3c(=O)n(C)c4ccccc4c3n2C)cc1", "survival": "inactive: 80%"}
{"smiles": "Cc1cccc(N2CCN(c3nc4ccccc4c4nc(-c5cccnc5)nn34)CC2)c1C", "survival": "inactive: 89%"}
{"smiles": "CCn1cc(C(=O)Nc2ccc(C(C)C)cc2)c2cc(OC)c(OC)cc2c1=O", "survival": "inactive: 103%"}
{"smiles": "CCc1cccc(N2C(=O)N(Cc3c(F)cccc3Cl)c3ccccc3S2(=O)=O)c1", "survival": "inactive: 69%"}
{"smiles": "Cc1ccc2cc3cc(C(=O)N(C)c4ccccc4C)oc3nc2c1", "survival": "inactive: 40%"}
{"smiles": "CCOC(=O)c1ccc(NC(=O)c2c(NCc3cc(OC)ccc3OC)sc3c2CCC3)cc1", "survival": "inactive: 69%"}
{"smiles": "CCc1cnc2c(c1SCCC(C)C)c(=O)n(C)c(=O)n2C", "survival": "inactive: 79%"}
{"smiles": "Cc1cccc(C)c1NC(=O)CN1C(=O)c2ccccc2Sc2ncccc21", "survival": "inactive: 92%"}
{"smiles": "COc1ccc(-c2noc(CSc3nnc(-c4ccccc4)n3C)n2)cc1", "survival": "inactive: 79%"}
{"smiles": "CC(C)OCCCNC(=O)c1nn(C)c2c1CSc1ccccc1-2", "survival": "inactive: 95%"}
{"smiles": "CCCOC(=O)c1ccc(Nc2c(C(=O)OCC)cnc3c(C)cc(Cl)cc23)cc1", "survival": "active: 4%"}
{"smiles": "CC(=O)c1cc(-c2ccccc2)n(CC(=O)NCc2ccccc2C)c1C", "survival": "inactive: 85%"}
{"smiles": "COC(=O)c1cc2sc(C)cc2n1CC(=O)Nc1ccc(C)cc1Cl", "survival": "inactive: 86%"}
{"smiles": "C=CCn1c(N)cc(=O)nc1SCC(=O)NC1CCCCC1", "survival": "inactive: 97%"}
{"smiles": "COc1ccc(C)cc1NC(=O)CN1CCN(S(=O)(=O)c2ccc(Br)cc2)CC1", "survival": "inactive: 55%"}
{"smiles": "Cc1oc2c(cc(NS(=O)(=O)c3ccc(F)cc3)c3ccccc32)c1C(=O)OCc1ccccc1", "survival": "inactive: 65%"}
{"smiles": "COc1ccc(NC(=O)C2CCC(CNS(=O)(=O)c3cccs3)CC2)cc1OC", "note": "(stereo unspecified)", "survival": "inactive: 121%"}
{"smiles": "Clc1ccccc1-c1nnc(-c2ccccc2CNc2ccccc2)o1", "survival": "inactive: 96%"}
{"smiles": "Cn1c(CNC(=O)c2ccccc2)n[nH]c1=S", "survival": "inactive: 121%"}
{"smiles": "Cc1cccc(CC(=O)Nc2cccc(-c3nc4cccnc4s3)c2)c1", "survival": "inactive: 113%"}
{"smiles": "CCN1CCc2c(sc(-n3cccc3)c2C(C)NC(=O)Nc2ccccc2C)C1", "note": "(stereo unspecified)", "survival": "inactive: 72%"}
{"smiles": "COc1ccccc1CNC(=O)c1cc2ccc3ccc(C)[nH]c3c2n1", "survival": "inactive: 81%"}
{"smiles": "Cc1ccccc1CSCCNC(=O)CN(c1ccccc1)S(=O)(=O)N(C)C", "survival": "inactive: 67%"}
{"smiles": "Cc1ccc(C)c(N2CCN(S(=O)(=O)c3csc(C(N)=O)c3)CC2)c1", "survival": "inactive: 78%"}
{"smiles": "CCCNc1c2c(nc3ccccc13)CC(C)(C)CC2=O", "survival": "inactive: 112%"}
{"smiles": "CCn1nnc2cc(C(=O)Nc3cccc(C)c3C)ccc21", "survival": "inactive: 64%"}
{"smiles": "C=CCn1cc(/C=C(\\C#N)C(=O)NC2CCCCC2)c2ccccc21", "survival": "inactive: 123%"}
{"smiles": "Cc1cccc(Oc2ccc(NC(=O)CCC(=O)OCC(=O)c3ccc(Br)cc3)cc2)c1C", "survival": "inactive: 80%"}
{"smiles": "COc1cccc(C(C(=O)NCc2ccccc2)N(C(=O)Cn2nnc3ccccc32)c2cccc(C(C)=O)c2)c1", "note": "(stereo unspecified)", "survival": "inactive: 84%"}
{"smiles": "Cc1ccc(C)c(CSc2cn(CCNC(=O)c3ccccc3F)c3ccccc23)c1", "survival": "inactive: 30%"}
{"smiles": "COc1ccc(NC(=O)c2oc3ccc(S(=O)(=O)N4CCC5(CC4)OCCO5)cc3c2C)cc1Cl", "survival": "inactive: 74%"}
{"smiles": "COc1cc(C2c3c(-c4ccccc4O)n[nH]c3C(=O)N2CCO)ccc1OCC(C)C", "note": "(stereo unspecified)", "survival": "inactive: 108%"}
{"smiles": "COc1ccc(Cc2c(C)nn(-c3nc(C)c(C(=O)Nc4ccc(C)cc4C)s3)c2C)cc1", "survival": "inactive: 79%"}
{"smiles": "CCCN1CCN(CCCNC(=O)c2ccc(CS(=O)c3ccc(OC)cc3)o2)CC1", "note": "(stereo unspecified)", "survival": "inactive: 83%"}
{"smiles": "CCN(CC)CCNC(=O)c1cc2c(=O)oc3ccc(C)cc3c2s1", "survival": "inactive: 72%"}
{"smiles": "CCCN(CCC)C(=O)CSc1nnc2cc(C)c3ccccc3n12", "survival": "inactive: 84%"}
{"smiles": "CCCCc1ccc(NC(=O)CSc2nnc3[nH]c(=O)cc(C)n23)cc1", "survival": "inactive: 80%"}
{"smiles": "COC(=O)COc1cc(C)nc(SC)n1", "survival": "inactive: 98%"}
{"smiles": "Cc1cc(C)c(Cn2c3ccccc3c3cnn(CC(=O)NCC(C)c4ccccc4)c(=O)c32)c(C)c1", "note": "(stereo unspecified)", "survival": "inactive: 80%"}
{"smiles": "O=C(/C=C/c1ccc(Cl)cc1)Nc1nc(-c2cccs2)ns1", "survival": "inactive: 75%"}
{"smiles": "Cc1ccc(NC(=O)Cn2nnc3sc4c(c3c2=O)CCCC4)c(C)c1", "survival": "inactive: 72%"}
{"smiles": "COc1ccc(Cc2nnc(SCC(=O)N3CCCC3)o2)cc1", "survival": "inactive: 109%"}
{"smiles": "O=C(Nc1ccccc1)C1CCCN1C(=O)NCc1ccccc1", "note": "(stereo unspecified)", "survival": "inactive: 101%"}
{"smiles": "CCn1cc(C(=O)NCc2ccc(F)cc2)c(=O)c2cc(S(=O)(=O)N(C)C)ccc21", "survival": "inactive: 77%"}
{"smiles": "Cn1c(SCCC(=O)O)nnc1-c1ccncc1", "survival": "inactive: 105%"}
{"smiles": "O=C(O)C1CSC2(CCN(Cc3ccccc3)CC2)N1", "note": "(stereo unspecified)", "survival": "inactive: 103%"}
{"smiles": "COc1ccc(-n2c(CCC(=O)O)ccc2-c2ccccc2)c(OC)c1", "survival": "inactive: 69%"}
{"smiles": "CC(=O)N1CCCc2cc(S(=O)(=O)N(Cc3ccccc3)C(C)C)ccc21", "survival": "inactive: 73%"}
{"smiles": "COc1cc(OC)c(NC(=O)CCNS(=O)(=O)c2ccc3c(c2)oc(=O)n3C)cc1Cl", "survival": "inactive: 67%"}
{"smiles": "CC(=O)Nc1cccc(NC(=O)C(=O)NCCc2csc3nc(-c4ccccc4F)nn23)c1", "survival": "inactive: 57%"}
{"smiles": "CCOC(=O)c1ccccc1NC(=O)c1nn(C)c2c1COc1ccccc1-2", "survival": "inactive: 77%"}
{"smiles": "CCCN1CCN(CCCNC(=O)Cn2c(-c3cccs3)cc3cc(Cl)ccc32)CC1", "survival": "inactive: 71%"}
{"smiles": "Cc1cc(Cl)ccc1NC(=O)c1cc2ccccn2n1", "survival": "inactive: 68%"}
{"smiles": "NC(=O)c1c(NC(=O)CN(C(=O)c2cccs2)C2CCCC2)sc2c1CCCC2", "survival": "inactive: 106%"}
{"smiles": "Cc1ccc(CNC(=O)CSC2=Nc3ccccc3C3=NC(C)C(=O)N23)cc1", "note": "(stereo unspecified)", "survival": "inactive: 70%"}
{"smiles": "Cc1ccc2occ(CC(=O)N3CCN(c4cccc(Cl)c4)CC3)c2c1", "survival": "inactive: 102%"}
{"smiles": "CC(C)CCNC(=O)c1cn(C)c2ccc(S(=O)(=O)N3CCOCC3)cc2c1=O", "survival": "inactive: 83%"}
{"smiles": "Cc1ccc(OCc2nnc(-c3ccccc3)o2)cc1", "survival": "inactive: 77%"}
{"smiles": "COc1ccccc1N1CCN(S(=O)(=O)c2ccc(-c3cnc(C4CC4)o3)cc2)CC1", "survival": "inactive: 132%"}
